US12655454B2, “Process for producing formate using oxygen-tolerant enzymes” (GWANGJU INSTITUTE OF SCIENCE AND TECHNOLOGY, priority 2022, dated 2026)

Substrate: NC(=O)c1ccc[n+]([C@@H]2O[C@H](COP(=O)([O-])OP(=O)(O)OC[C@H]3O[C@@H](n4cnc5c(N)ncnc54)[C@H](O)[C@@H]3O)[C@@H](O)[C@H]2O)c1
Assay: NAD^+-dependent H2 oxidation kinetics of ReSH (Michaelis-Menten)
Assay type: biochemical
Details: Kpi buffer pH 7.0, absorbance at 365 nm
[1] = other: 0% O2, NAD^+ varied 0 to 2 mM
[2] = other: 5% O2, NAD^+ varied 0 to 2 mM

B1: Ralstonia eutropha-derived hydrogenase (ReSH), wild type, SEQ ID NO: 1 to SEQ ID NO: 5 (Cupriavidus necator H16) (protein)
chain 1: MASWSHPQFEKGADSRITTILERYRSDRTRLIDILWDVQHEYGHIPDAVLPQLGAGLKLSPLDIRETASFYHFFLDKPSGKYRIYLCNSVIAKINGYQAVREALERETGIRFGETDPNGMFGLFDTPCIGLSDQEPAMLIDKVVFTRLRPGKITDIIAQLKQGRSPAEIANPAGLPSQDIAYVDAMVESNVRTKGPVFFRGRTDLRSLLDQCLLLKPEQVIETIVDSRLRGRGGAGFSTGLKWRLCRDAESEQKYVICNADEGEPGTFKDRVLLTRAPKKVFVGMVIAAYAIGCRKGIVYLRGEYFYLKDYLERQLQELREDGLLGRAIGGRAGFDFDIRIQMGAGAYICGDESALIESCEGKRGTPRVKPPFPVQQGYLGKPTSVNNVETFAAVSRIMEEGADWFRAMGTPDSAGTRLLSVAGDCSKPGIYEVEWGVTLNEVLAMVGARDARAVQISGPSGECVSVAKDGERKLAYEDLSCNGAFTIFNCKRDLLEIVRDHMQFFVEESCGICVPCRAGNVDLHRKVEWVIAGKACQKDLDDMVSWGALVRRTSRCGLGATSPKPILTTLEKFPEIYQNKLVRHEGPLLPSFDLDTALGGYEKALKDLEEVTR
chain 2: MSRKLVIDPVTRIEGHGKVVVHLDDDNKVVDAKLHVVEFRGFEKFVQGHPFWEAPMFLQRICGICFVSHHLCGAKALDDMVGVGLKSGIHVTPTAEKMRRLGHYAQMLQSHTTAYFYLIVPEMLFGMDAPPAQRNVLGLIEANPDLVKRVVMLRKWGQEVIKAVFGKKMHGINSVPGGVNNNLSIAERDRFLNGEEGLLSVDQVIDYAQDGLRLFYDFHQKHRAQVDSFADVPALSMCLVGDDDNVDYYHGRLRIIDDDKHIVREFDYHDYLDHFSEAVEEWSYMKFPYLKELGREQGSVRVGPLGRMNVTKSLPTPLAQEALERFHAYTKGRTNNMTLHTNWARAIEILHAAEVVKELLHDPDLQKDQLVLTPPPNAWTGEGVGVVEAPRGTLLHHYRADERGNITFANLVVATTQNNQVMNRTVRSVAEDYLGGHGEITEGMMNAIEVGIRAYDPCLSCATHALGQMPLVVSVFDAAGRLIDERAR
B1 showed a Km [1] of 393 ± 41 µM, a kcat [1] of 39.7 ± 1.5 s⁻¹ and a Km [2] of 364 ± 33 µM. It also gave a kcat [2] of 39.2 ± 1.3 s⁻¹.
